Reference: PubChem BioAssay AID894 (National Center for Advancing Translational Sciences (NCATS), 2007)
Where “and” joins values, the source holds several entries; their conditions need not be identical. Identical values can stand only once. Hit rate of the full screen: of about 150,000 compounds, about 6,500 (4.3%) were called active. The shares of active, inactive and inconclusive entries below differ from those in the screen. Calls come from the whole dose curve; as a rule, active = well fitted inhibition curve with a large enough effect (not every such curve was filed as active); inconclusive = small, poorly fitted or top-dose-only effect, or another doubt; inactive = no such curve, though single readings can be large or run the other way. No potency is given beside an inconclusive call; the fits are too rough.

target: 15-hydroxyprostaglandin dehydrogenase [NAD(+)] (Homo sapiens) (UniProt P15428); assay: qHTS Assay for Inhibitors of HPGD (15-Hydroxyprostaglandin Dehydrogenase); conditions: purified HPGD, NADH fluorescence kinetic, PGE2 substrate; activity change, negative = inhibition: stronger effect = lower value
UniProt P15428, sequence (P15428 whole entry, looked up): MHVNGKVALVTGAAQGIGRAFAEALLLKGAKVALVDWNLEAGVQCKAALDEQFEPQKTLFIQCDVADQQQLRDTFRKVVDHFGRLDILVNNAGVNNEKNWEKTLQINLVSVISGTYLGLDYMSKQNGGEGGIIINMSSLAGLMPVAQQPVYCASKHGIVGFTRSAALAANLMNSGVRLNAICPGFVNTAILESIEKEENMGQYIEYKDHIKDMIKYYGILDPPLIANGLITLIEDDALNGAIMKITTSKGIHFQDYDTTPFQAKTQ
Method in brief: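 NADH formation kinetics: reaction with 30 uM PGE2 and 1 mM NAD+ (final), 20 nM enzyme, Tris-HCl pH 8 with Tween 20, after 15 min compound preincubation at room temperature. Fluorescence change, last versus first of five reads.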
% is set by controls: 0 for no effect and ±100 for the full control effect; potency is the fitted concentration of half-maximal effect; tags give direction and shape of the fitted curve.

Structure (SMILES) | Potency | activity change, negative = inhibition
Cc1ccc(C(=O)/C=C\NCc2ccccc2)cc1 | inconclusive [inhibitor, partial curve] | 
CCOC(=O)C1=C(CSc2nc(-c3ccccc3)ccc2C#N)OC(N)=C(C#N)C1c1ccc(OC)cc1 (stereo not drawn) | inconclusive [inhibitor, single point] | 
CCCn1c(=N)c(C#N)cc2c(=O)n3ccccc3nc21 | inconclusive [inhibitor, partial curve] | 
c1ccc(-c2nc3c(ccc4ccccc43)[nH]2)nc1 | inconclusive [inhibitor, single point] | 
COc1ccc(-c2cc(C(=O)O)no2)cc1 | active: 14.1 µM | 
CN(C)c1nc(NCc2ccccc2)nc(Oc2ccc(=O)[nH]n2)n1 | inconclusive [inhibitor, single point] | 
COC(=O)c1ccc(C(NC(=O)OCc2ccccc2)/C(I)=C/[C@@H](C)C(=O)NCC2CC2)cc1 (stereo partly drawn) | active: 14.1 µM | 
COc1ccc(CC(=O)Nc2ccc(-c3nnc(-c4ccccc4)o3)cc2)cc1OC | inconclusive [inhibitor, partial curve] | 
CCOc1cccc(C(=O)Nc2nc(-c3ccc(S(=O)(=O)N4CCOCC4)cc3)cs2)c1 | inconclusive [inhibitor, partial curve] | 
Cc1nc(NCc2ccccc2)c2nc(-c3ccccc3)n(CCCN3CCOCC3)c2n1 | inconclusive [inhibitor, partial curve] | 
COc1ccc(-c2cn3cc(Cl)ccc3n2)cc1OC | inconclusive [inhibitor, partial curve] | 
Nc1nc2ccc(S(=O)(=O)c3ccc4nc(N)sc4c3)cc2s1 | inconclusive [inhibitor, partial curve] | 
COc1ccc(/C=C(/CC(=O)Nc2ccccc2)c2nc3ccccc3s2)cc1 | inconclusive [inhibitor, single point] | 
CCN(CC)C(=O)c1sc(NC(=O)c2cccnc2)c(C(=O)OC)c1C | active: 20 µM | 
COC(=O)c1ccc(C(=O)Nc2cc(Cl)ccc2Cl)cc1NC(=O)c1ccccc1C | inconclusive [inhibitor, partial curve] | 
COc1ccc(Nc2nc(-c3sc(NC(C)=O)nc3C)cs2)cc1 | inconclusive [inhibitor, partial curve] | 
CN(CC(=O)Nc1ccc(F)c(F)c1)S(=O)(=O)c1cccc2nsnc12 |  | inactive: -26.3%
Brc1cccc(-c2n[nH]c(-c3ccccc3)n2)c1 | inconclusive [inhibitor, partial curve, poor fit] | 
COC(=O)C1=C(COc2ccc(C=O)cc2OC)NC(=O)NC1c1cc(C)ccc1C (stereo not drawn) |  | inactive: -6.31%
CC(=O)Nc1ccc(S(=O)(=O)N2CCN(c3nc(NC4CCCC4)c4ccccc4n3)CC2)cc1 | inconclusive [inhibitor, partial curve] | 
Cc1ccc(NC(=O)CSCCc2ccccn2)nc1 |  | inactive: -9.8%
COc1ccc(-n2c(NC(=O)c3ccco3)c(C#N)c3nc4ccccc4nc32)cc1 | inconclusive [inhibitor, partial curve] | 
CCOc1ccc(S(=O)(=O)Nc2nc3ccccc3nc2N2CCN(C)CC2)cc1 | inconclusive [inhibitor, partial curve] | 

Structure (SMILES) | Potency | activity change, negative = inhibition
CC(C)NC(=O)c1cc(=O)n(C)c(=O)n1C |  | inactive: -12.7%
O=C(CSc1nc(-c2ccco2)cc(C(F)(F)F)n1)Nc1ccc(C(=O)N2CCCCC2)cc1 | active: 0.562 µM | 
COc1ccc(CCNC(=O)Cc2ccc(OCc3ccccc3)c(OC)c2[N+](=O)[O-])cc1OCc1ccccc1 |  | inactive: -17.7%
COc1ccc(-n2ncc3c(NCc4cccs4)ncnc32)cc1 | inconclusive [inhibitor, partial curve] | 
CCOC(=O)c1ccc(N)cc1 |  | inactive: -2.5% and inactive: -9.37%
COc1ccc(Cc2nc(C(=O)Nc3ccc(Cl)cc3)cs2)cc1 | inconclusive [inhibitor, partial curve] | 
CC1(CC(=O)N/N=C/c2cc(Br)c(O)cc2O)OCCO1 |  | inactive: -24.4%
CCCCc1nc2c(c3c1C[C@H](C)OC3)CN(S(=O)(=O)c1c(C)noc1C)CC2 |  | inactive: -8.58%
CCn1ncc(/C=N\NC(=O)c2ccc3c(c2)c(C)c(C)n3Cc2ccccc2)c1C | inconclusive [inhibitor, partial curve] | 
COC(=O)c1ccc(NS(=O)(=O)N(C)C)cc1 | inconclusive [inhibitor, partial curve] | 
COc1cc(/C=C/C(=O)NCc2ccccn2)cc(OC)c1OC | inconclusive [inhibitor, partial curve] | 
CCOC(=O)c1sc(Nc2nc3c(OC)cccc3s2)nc1C | inconclusive [inhibitor, partial curve] | 
CN(C)c1ccc(C(=O)OCc2ccc(Br)cc2)cc1 | inconclusive [inhibitor, single point] | 
NC(=S)N/N=C/c1ccc(-c2cc(Cl)ccc2Cl)o1 | inconclusive [inhibitor, partial curve] | 
O=C(Cn1cnc2c(nnn2Cc2ccccc2)c1=O)N1CCCc2ccccc21 | inconclusive [inhibitor, single point] | 
COC(=O)c1c(C)n(-c2ccccc2)c2ccc(O)cc12 | inconclusive [inhibitor, partial curve, poor fit] | 
O=C(Nc1cccn(Cc2c(Cl)cccc2Cl)c1=O)c1ccc(Cl)cc1Cl | inconclusive [inhibitor, single point] | 
Cc1c(C(=O)N2CC(C)OC(C)C2)sc2nc(-c3ccccc3)cn12 (stereo not drawn) | inconclusive [inhibitor, partial curve] | 
CCCCC(=O)Nc1cc2nn(-c3ccc(OC)cc3)nc2cc1C | inconclusive [inhibitor, partial curve] | 
C=CCn1c(=O)c2c(nc(-c3ccc(S(=O)(=O)O)cc3)n2C)n(C)c1=O | inconclusive [inhibitor, partial curve] | 
O=C(Nc1ccccc1C(=O)O)c1ccc(NC(=O)c2ccc(Br)o2)cc1 | active: 17.8 µM | 
CN(CC(=O)Nc1c(Cl)cccc1Cl)C(=O)CCCN1C(=O)c2ccccc2C1=O |  | inactive: -9.95%
CCn1cc(C(=O)O)c(=O)c2cc(OC)ccc21 | inconclusive [inhibitor, partial curve] | 

Structure (SMILES) | Potency | activity change, negative = inhibition
CCCCOC(=O)c1ccc(NC(=O)c2cnccn2)cc1 | active: 15.8 µM | 
CC(=O)Nc1ccc(-c2cc(-c3ccccc3)nc(-c3ccccc3)n2)cc1 | inconclusive [inhibitor, partial curve] | 
COC(=O)c1ccccc1NC(=O)C1CCCC1 | inconclusive [inhibitor, partial curve] | 
O=C(CCCCC(=O)NCc1cccs1)NCc1cccs1 |  | inactive: -5.18%
COCCNC(=S)c1ccc(OC)cc1 | inconclusive [inhibitor, partial curve, poor fit] | 
CCCCNC(=O)Cc1coc2ccc3ccccc3c12 | active: 14.1 µM | 
CCCNC(=O)c1ccc(CN2CCc3ccccc3C2)cc1 |  | inactive: -28.5%
Cc1cc(C)n(-c2ccc(Cl)c(C(=O)Nc3ccc(-c4nnc5n4CCCCC5)cc3)n2)n1 | active: 1.78 µM | 
COC(=O)[C@]1(C)CCC(c2ccc(C)cc2)=C(CC(=O)O)C1 |  | inactive: -6.68%
c1ccc(N2CCN(c3nc4ccccc4n4cnnc34)CC2)cc1 | inconclusive [inhibitor, partial curve] | 
O=[N+]([O-])c1cc(Br)c(O)c(/C=N/Nc2nnnn2-c2cccc3ccccc23)c1 | inconclusive [inhibitor, partial curve, poor fit] | 
CCc1cccc2c(C(=O)COC(=O)c3cccc(S(=O)(=O)N(C)C4CCCCC4)c3)c[nH]c12 | inconclusive [inhibitor, partial curve] | 
CCOC(=O)c1[nH]c2ccc(Br)cc2c1NC(=O)CCN1CCCC(C)C1 (stereo not drawn) |  | inactive: -16.5%
Cc1cc(C(=O)COc2ccccc2Cl)c(C)n1-c1ccc2c(c1)OCO2 | inconclusive [inhibitor, single point] | 
S=c1[nH]nc(Cc2cccc3ccccc23)n1-c1ccccc1 | active: 14.1 µM | 
CNC1CCC(c2ccc(Cl)c(Cl)c2)c2ccccc21 (stereo not drawn) |  | inactive: 1.49%
COc1ccc(S(=O)(=O)N2CCCC2C(=O)Nn2cnnc2)cc1 (stereo not drawn) |  | inactive: 0.348%
CCOc1cc(NC(=O)c2ccco2)c(OCC)cc1NC(=O)Cc1cccc(OC)c1 | inconclusive [inhibitor, single point] | 
C=CCOC(=O)C1=C(C)NC(SCC(=O)N(CC)CC)=C(C#N)C1c1ccccc1 (stereo not drawn) | inconclusive [inhibitor, partial curve] | 
COc1ccc([C@H]2[C@H](C(C)=O)N3N=Cc4ccccc4C3C23C(=O)OC(C)(C)OC3=O)cc1 (stereo partly drawn) | inconclusive [inhibitor, partial curve] | 
COc1ccc(C)cc1NC(=O)CN(C)S(=O)(=O)c1cccs1 |  | inactive: 2.53%
Cc1nc(SCC(=O)Nc2ccc3c(c2)OCO3)c(C#N)c2c1CCCC2 | inconclusive [inhibitor, partial curve] | 
